Measurements reported in PubChem BioAssay AID1645882 (National Center for Advancing Translational Sciences (NCATS), 2021).
About 120 (0.75%) of roughly 16,000 compounds were called active. Roughly 4% stayed inconclusive and do not appear here. Calls follow the shape of the dose curve; as a rule, active = well fitted inhibition curve with a large enough effect; inconclusive = small, poorly fitted or top-dose-only effect; inactive = no such curve, though single readings can be large or run the other way. Some of the results follow.

These compounds were tested against Rap guanine nucleotide exchange factor 3 (Homo sapiens) (UniProt O95398) (assay: Validation qHTS for antagonist of cAMP-regulated guanine nucleotide exchange factor 3 (EPAC1)). Settings: EPAC1 Rap1B-BODIPY-GDP exchange, fluorescence; series mostly up to 150 µM; activity change, negative = inhibition: at the top concentration.
Chain of UniProt O95398 (O95398 whole entry, looked up): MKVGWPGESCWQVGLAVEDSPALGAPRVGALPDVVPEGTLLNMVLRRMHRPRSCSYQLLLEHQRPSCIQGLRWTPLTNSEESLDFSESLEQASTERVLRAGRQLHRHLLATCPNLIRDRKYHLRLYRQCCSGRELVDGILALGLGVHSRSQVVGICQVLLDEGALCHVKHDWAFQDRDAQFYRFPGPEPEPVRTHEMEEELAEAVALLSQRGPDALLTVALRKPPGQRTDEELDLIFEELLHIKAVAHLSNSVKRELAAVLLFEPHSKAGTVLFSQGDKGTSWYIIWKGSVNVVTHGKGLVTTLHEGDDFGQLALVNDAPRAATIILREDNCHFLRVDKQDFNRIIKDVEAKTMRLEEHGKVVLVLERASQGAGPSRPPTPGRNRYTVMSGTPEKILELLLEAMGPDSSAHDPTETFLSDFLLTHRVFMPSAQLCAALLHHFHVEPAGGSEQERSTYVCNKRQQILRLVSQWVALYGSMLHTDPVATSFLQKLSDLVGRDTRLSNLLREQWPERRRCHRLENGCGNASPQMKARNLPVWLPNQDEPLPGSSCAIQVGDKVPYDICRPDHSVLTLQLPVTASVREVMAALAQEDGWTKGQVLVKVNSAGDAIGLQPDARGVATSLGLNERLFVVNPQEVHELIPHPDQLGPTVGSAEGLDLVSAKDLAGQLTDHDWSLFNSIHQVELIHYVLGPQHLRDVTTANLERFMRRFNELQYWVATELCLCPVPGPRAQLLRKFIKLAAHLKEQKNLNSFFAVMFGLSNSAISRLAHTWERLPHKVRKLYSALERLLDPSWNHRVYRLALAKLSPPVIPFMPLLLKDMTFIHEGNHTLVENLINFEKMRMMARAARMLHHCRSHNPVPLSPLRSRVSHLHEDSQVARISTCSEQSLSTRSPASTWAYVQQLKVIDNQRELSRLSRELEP
How it was run: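 EPAC1 (100 nM) mixed with 250 nM RAP1B-BODIPY-GDP and 50 uM GDP; compounds in concentration series, 5 min at room temperature. Fluorescence (ex 480/em 540 nm) read every 5 min for 30 min; normalized to ATA control and DMSO.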
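Also: plate controls were DMSO for no effect and ATA control for full effect; nearly all actives have a fitted effect of over 75% in size.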

Activity change, negative = inhibition, inactive:
COc1cc(-c2ccc(Cl)cn2)cc2c1OCCN(S(=O)(=O)C[C@]13CC[C@H](CC1=O)C3(C)C)C2 -1.22%
Cc1cc(NS(=O)(=O)c2ccc(N)cc2)no1
COC(=O)C[C@H]1c2cc(C(F)(F)F)ccc2S(=O)(=O)N1Cc1ccccc1 -3.42%
c1csc(CNc2nc(-c3ccoc3)nc3ccccc23)c1 -5.19%
CNC1C(O)C2OC3OC(C)CC(=O)[C@@]3(O)O[C@H]2[C@H](NC)C1O (stereo partly specified) 29.1%
O=C(c1ccc2c(c1)OCCO2)N1CCCCC1 -3.66% [at 75.8 µM]
Cc1nc(C)c(C(=O)N2CCc3c(cnc(C)c3CNC(=O)c3cncs3)C2)s1 9.19%
c1cncc(-c2nc(NCc3cccs3)c3ccccc3n2)c1 8.77%
O=C(O)c1ccccc1Nc1cc(Cl)ccc1C(=O)O 23.6%
CSCC[C@H](NC(=O)[C@H](Cc1ccc(OS(=O)(=O)O)cc1)NC(=O)[C@@H](N)CC(=O)O)C(=O)NCC(=O)N[C@@H](Cc1c[nH]c2ccccc12)C(=O)N[C@@H](CCSC)C(=O)N[C@@H](CC(=O)O)C(=O)N[C@@H](Cc1ccccc1)C(N)=O 29.4%
NS(=O)(=O)c1cc2c(cc1Cl)NC(CSCc1ccccc1)=NS2(=O)=O
Cc1cc(C(=O)Nc2ccccc2-c2nc(CNC(=O)c3cc4ccccc4cn3)c(C)o2)c(C)o1 10.3%
CS(=O)(=O)N1CCC2(CC1)CN(Cc1ccc(C#N)cc1)C2 2.98%
COc1cc(O)c2c(c1)C(=O)c1cc(C)cc(O)c1C2=O 7.05%
Cc1nc2cc(NC(=O)[C@@H]3C[C@@H](Sc4ccccn4)CN3Cc3ccc(F)cc3F)ccc2s1 32.8%
CCOC(=O)n1ccn(C)c1=S
O=C1OC(=O)C2C3CCC(O3)C12 (stereo unspecified)
O=P(O)(O)OP(=O)(O)O 5.53%
c1cncc(CNc2nc(-c3ccc4c(c3)OCO4)nc3ccccc23)c1 -1.58%
Cc1cnc(C(=O)N2CCOc3ccc(CN4CCCC(C(=O)c5cccnc5)C4)cc3C2)[nH]1 (stereo unspecified) 4.41%
CC1(O)CCC(C(C)(C)O)CC1 (stereo unspecified) 8.56%
COC(=O)C(C)(N)Cc1ccc(O)cc1 (stereo unspecified) -9.27% [at 75.8 µM]
C[C@@H](Cc1ccccc1)Nc1ncnc2c1ncn2[C@@H]1O[C@H](CO)[C@@H](O)[C@H]1O 34.7%
Cc1ccccc1-c1cncnc1NCc1ccccc1 7.26%
CC(C)CN1CCC2(CC1)CCN(C(=O)c1csnn1)CC2 6.56%
CC(=O)Nc1ccccc1-c1nc(CNC(=O)c2ccc(-n3cccn3)cc2)c(C)o1 19.1%
CCC(=O)Oc1ccc2c(c1)CC[C@@H]1[C@@H]2CC[C@]2(C)[C@@H](OC(=O)CC)CC[C@@H]12 26.1%
C#Cc1cccc(C(=O)NCc2nc(-c3ccccc3NC(=O)C3CCCO3)oc2C)c1 (stereo unspecified) 9.35%
Cn1c(=O)c(-c2cccc(C#N)c2)nc2cnc(Oc3ccccc3)nc21 5.55%
CC(C)c1c(O)ccc2c1CCC1[C@@](C)(CO)CCC[C@@]21C (stereo partly specified) -22.1%
Cc1cc(C=O)cc(C)c1[N+](=O)[O-] 20.4%
Cc1noc(C)c1C(=O)N1CCC2(CCN(Cc3ccc(C#N)cc3)CC2)CC1 1.55%
Cc1c(CN2CCOc3c(O)cc(-c4nc5ccccc5s4)cc3C2)cnn1C 12.4%
C=C[C@@H](C1=CC(=O)C(OC)=C(OC)C1=O)c1ccccc1 1.12%
Cc1ccnc2c(Cl)ccc(Cl)c12 15.2%
Clc1ccccc1-c1cncnc1NCc1cccs1 14.2%
C=C1CCC(O)C/C1=C/C=C1\CCC[C@@]2(C)C(C(C)/C=C/C(C)C(C)C)CC[C@@H]12 (stereo partly specified) 14%
COc1ccc(C(=O)N2CCCC(c3nc(SCc4ccccn4)ncc3C)C2)cc1F (stereo unspecified) -0.24%
COc1ccc(CNc2ncncc2-c2cccnc2)c(OC)c1 0.447%
O=C1CN(/N=C/c2ccc(-c3ccc([N+](=O)[O-])cc3)o2)C(=O)N1 -14.7% [at 201 µM]
Cc1cnc(CNc2nc(-c3ccccc3C(F)(F)F)nc3ccccc23)cn1 -7.09%
CCNc1ncc2nc(-c3ccc(F)cc3)c(=O)n(CCOC)c2n1 13.5%
CCCS(=O)(=O)NCc1c(C)ncc2c1CCN(C(=O)/C=C/c1ccccc1)C2 8.36%
CCN(CC)CCOC(=O)C(Cc1cccc2ccccc12)CC1CCCO1 (stereo unspecified)
O=c1c(-c2ccccc2)nc2cnc(N3CCOCC3)nc2n1CCc1ccccc1 10%
C[C@H](CC[C@@H]1OC1(C)C)C1CC[C@H]2[C@@H]3CC=C4C[C@@H](O)CC[C@]4(C)[C@H]3CC[C@]12C (stereo partly specified) 14.3%
CC1(C)S[C@@H]2[C@H](NC(=O)C(C(=O)O)c3ccccc3)C(=O)N2[C@H]1C(=O)O (stereo partly specified) 18.2%
O=C1CCC[C@@H]2C[C@@]3(C[C@@H]4CCN1[C@H]24)Nc1cc([N+](=O)[O-])ccc1NC3=NC1CCCCC1 2.38%
Cc1nc(C)c(CC(=O)N2CCOc3ccc(CN4CCOCC4)cc3C2)s1 15.1%
Cn1c(C(c2cc3ccccc3n2C)c2cc3ccccc3n2C)cc2ccccc21 -25.8%
CCOC(=O)OCC/C(SC(=O)OCC)=C(\C)N(C=O)Cc1cnc(C)nc1N 12%
C[C@H](N)[C@H](O)c1cccc(O)c1 12% [at 75.8 µM]
COc1ccc(C(=O)/C(Br)=C\C(=O)O)cc1 14.6%
COC(=O)c1ccccc1NC(=O)c1ccc(F)cc1 6.74%
COc1cccc(-c2ccc3ncnc(N4CCOCC4)c3c2)c1 1.91%
CC(=O)[C@@]1(O)CC[C@H]2[C@@H]3C[C@H](C)C4=CC(=O)CC[C@]4(C)[C@H]3CC[C@@]21C 15.6%
O=C(CO)[C@@H](O)[C@H](O)[C@H](O)CO 25.1%
CN=C(NC#N)Nc1ccc(C2=NNC(=O)CC2C)cc1 (stereo unspecified)
NCC1O[C@@H](O[C@H]2C(O)C(O[C@@H]3C(O[C@H]4OC(CO)C(O)C(O)C4N)C(N)CC(N)[C@H]3O)O[C@@H]2CO)C(N)C(O)C1O (stereo partly specified) 20.7%
COc1ccc(NC(=O)N2CC3(CCN(C(=O)c4ccco4)CC3)C2)cc1 -3.89%
O=c1cnc2cnc(Oc3cccc(Cl)c3)nc2n1CCc1ccccc1 -9.86%
Cc1ccc(CN2[C@@H](Cc3ccccc3)C(=O)CS2(=O)=O)cc1 -19.9%
COc1ccc2[nH]cc(CCNc3ccnc(-c4cccnc4)n3)c2c1 0.931%
COc1ccc(C(=O)N2CCC3(CCCN(C(=O)Nc4cccc(C#N)c4)C3)CC2)cc1 8.66%
Cc1ccccc1OCC(O)CO (stereo unspecified) 26.6%
CCCCCCCCCCCCCCCCCCc1ccc(C(=O)/C=C\C(=O)O)cc1 11.4%
S=c1ccss1 21.3%
CC1=C(CC(=O)O)c2cc(F)ccc2/C1=C\c1ccc(S(C)(=O)=O)cc1 -2.16% [at 75.8 µM]
N[C@H](C(=O)O)c1ccc(C(=O)O)cc1
NC(N)=NC(=O)c1nc(Cl)c(N2CCCCCC2)nc1N 8.17% [at 75.8 µM]
COC(=O)CC1[C@@]2(C)C[C@@]34OC5(C)OC6(CC[C@@]7(C)C(c8ccoc8)OC(=O)C(C(C)=O)C7[C@]6(O5)C(O)[C@@]3(O)C2O)[C@]14C (stereo partly specified) 29.5%
CS(=O)(=O)c1ccc(-c2cc(Br)sc2-c2ccc(F)cc2)cc1 -3.98%
c1ccc2c(c1)CN1CCCC1=N2
O=C1CN(/N=C/c2ccc([N+](=O)[O-])o2)C(=O)N1
CC(C)C[C@@H](CSc1ccccc1)N1CCN(CCc2ccccc2)CCC1=O -9.65%
CC(O)(COc1ccccc1)c1ccc2c(c1)CN(Cc1cccc3ncccc13)CCO2 (stereo unspecified) -4.96%
CC(C)=CCC/C(C)=C/CC/C(C)=C/CO
Cc1nc2sccn2c(=O)c1CCN1CCC(=C(c2ccccc2)c2ccc(F)cc2)CC1 5.28% [at 75.8 µM]
CC(=O)N1CCC[C@@]2(CCN(Cc3ccc(C#N)cc3)C2)C1 16.2%
CC(C)(C)C1CCC(=O)N(CCOc2ccccc2)CC1 (stereo unspecified) -19.7%
Cc1c(C(=O)O)c(O)cc2c1C(=O)c1c(O)c([C@@H]3O[C@H](CO)[C@@H](O)[C@H](O)[C@H]3O)c(O)c(O)c1C2=O 7.12%
COc1c(-c2ccccc2)oc2c(ccc3occc32)c1=O -22.7%
Cc1ccc(CN2[C@@H](CC3CCCCC3)COCCS2(=O)=O)cc1 8.27%
Cc1cc(C)c2nccc(/C=C/c3ccc(N(C)C)cc3)c2c1 20.2%
COc1ccc(C(=O)N2CCC[C@@]3(CCN(C(=O)Nc4cccc(C#N)c4)C3)C2)cc1 22%
O=C1C[C@@H]2c3c(cccc3CN1Cc1ccccc1)C[C@@H](O)[C@H]2O 5.54%
NC(=NCCCCCCN=C(N)/N=C(\N)Nc1ccc(Cl)cc1)/N=C(\N)Nc1ccc(Cl)cc1
CC(C)(C)C(=O)C(Oc1ccc(Cl)cc1)n1ccnc1 (stereo unspecified) -0.509%
C1=C(CN2CCOCC2)COc2c1cccc2OC[C@@H]1CNCCO1 -7.68%
Oc1cc(O)cc(O)c1 25.1%
O=S(=O)(c1ccccc1)N1CCC2(CCCN(c3ncccn3)C2)CC1 -10.3%
COc1ccc(NC(=O)N2CC3(CCN(C(=O)c4csnn4)CC3)C2)cc1 5.55%
CCCC[C@H]1COCCS(=O)(=O)N1Cc1cccc([N+](=O)[O-])c1 -3.84%
Nc1ncnc2c1ncn2[C@@H]1O[C@H](COP(=O)(O)OP(=O)(O)O)[C@@H](O)[C@H]1O
CC1CCC(C(C)C)[C@H](OC(=O)c2ccccc2)C1 (stereo partly specified) 5.08%
c1csc(CNc2ncnc3ccc(-c4ccc5c(c4)OCO5)cc23)c1 17.5%
O=c1cc(-c2ccccc2)oc2cc(O)cc(O)c12
CC1CN(CCC(=O)NC(c2cccnc2)C(F)(F)F)Cc2cc(Cl)ccc2O1 (stereo unspecified) -12.1%
CCOC(=O)C[C@H]1c2cc(F)ccc2S(=O)(=O)N1C1CCCC1 10.4%
CCN(Cc1ccncc1)Cc1ccc2c(c1)CN(C(=O)c1cccc3c(C)c(C)[nH]c13)CCO2 10.4%
Cc1oc(-c2cccc(NC(=O)C3CCCN(C)C3)c2)nc1CNC(=O)c1coc2c1C(=O)CCC2 (stereo unspecified) -4.08%
